Here are results for 55 molecules from PubChem BioAssay AID1347073 (National Center for Advancing Translational Sciences (NCATS), 2019).

SMILES strings stand for the structures. The campaign covered roughly 45,000 compounds. About 200 (0.44%) were called active. Not shown: some 7% with an inconclusive outcome. Calls come from the whole dose curve; as a rule, active = well fitted activation curve with a large enough effect; inconclusive = small, poorly fitted or top-dose-only effect; inactive = no such curve, though single readings can be large or run the other way. This is one part of the list.

A short description of the assay: qHTS of TDP-43 Inhibitors: NCGC Sytravon Library Screen. Note: 0% is about no effect; nearly all actives have a fitted effect of over 55% in size. To be noted: yeast TDP-43 toxicity rescue, BacTiter-Glo growth, 24 h; series mostly up to 46.1 µM; growth rescue (activation): at the top concentration. The method, boiled down:
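TDP-43-expressing yeast, pregrown in raffinose, seeded at OD600 0.02 in galactose medium with compound for 24 hr at 30 deg C. Growth read by BacTiter-Glo luminescence, so rescue of toxicity appears as activation.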
(Quantitative high-throughput screening tests each substance at several concentrations.)
As for `Nc1ccc(-c2nc3c(Cl)c(N)ccc3[nH]2)cc1`, the “growth rescue (activation)” value is inactive: 5.02%.
For `NS(=O)(=O)c1ccc(CCNC(=S)Nc2ccc(F)cc2)cc1` the value was inactive: 10.5%; for `COc1cc(OC)c(S(=O)(=O)N2CCCCC2)cc1S(=O)(=O)N1CCCCC1`, inactive: 10.9%.
With `Cc1ccc(S(=O)(=O)N(C)c2c(C)ccc(S(=O)(=O)N3CCN(C)CC3)c2C)cc1` the figure was inactive: 14.4%; with `O=C(c1cc(-c2ccc(O)cc2)on1)N1CCCC1`, inactive: 9.01%.
As for `Cc1cccc(C(=O)Nc2cc(S(=O)(=O)N3CCOCC3)ccc2N2CCCC2)c1`, the “growth rescue (activation)” value was inactive: 13.1%.
Turning to `CC(=O)c1ccc(S(=O)(=O)N2CCN(CC#N)CC2)cc1`, the “growth rescue (activation)” value is inactive: 13%.
With `CCOC(=O)c1ccccc1NC(=O)Cc1ccc(S(=O)(=O)N2CCCC2)s1` the figure was inactive: 6.75%.
Consider `CC1=C(C(=O)OCCOc2ccccc2)C(c2ccsc2)NC(=O)N1C` (stereo not given), for which the “growth rescue (activation)” value is inactive: 19%.
With `O=C(O)Cn1cc(C(=O)C(F)(F)F)c2ccccc21`, the “growth rescue (activation)” value was inactive: 6.7%.
`CN(C)/N=C1\CCS(=O)(=O)c2sccc21`: the “growth rescue (activation)” value is inactive: -7.41%.
For `CC1(C)CC(=O)C=C(NCCN2CCN(C(=S)NC3CCCCC3)CC2)C1` the value was inactive: -7.26%; for `O=C(NCCN1CCCCC1)/C(=C/c1ccco1)NC(=O)c1ccccc1`, inactive: -15.2%; for `CCOc1cc(/C=C2\SC(N3CCCC(C)C3)=NC2=O)ccc1O` (stereo not given), inactive: 8.02%.
As for `O=C(CN1CCOCC1)Nc1ccc(NC(=O)c2ccccc2F)cc1`, the “growth rescue (activation)” value is inactive: 12.8%.
With `NC(Cc1c[nH]c2ccc(OCc3ccccc3)cc12)C(=O)O` (stereo not given), the “growth rescue (activation)” value is inactive: -1.34%.
For the molecule `O=C(COC(=O)c1cc(S(=O)(=O)N2CCOCC2)ccc1F)NCc1ccc2c(c1)OCO2`, the “growth rescue (activation)” value is inactive: 6.58%.
With `COCCNC(=O)C12CC3CC(C1)CC(c1ccccc1)(C3)C2` the figure was inactive: -16.7%; with `CCNC(=O)N1CCC(n2nccc2NC(=O)CCCc2ccccc2)CC1`, inactive: 10.7%; with `COc1ccc(OCCn2cc(/C=C(\C#N)C(=O)NCc3ccco3)c3ccccc32)cc1`, inactive: 5.1%.
For `C/C(=N\N1CCN(c2ccccc2)CC1)c1cccs1` the value was inactive: 9.2%; for `CCNC(=S)N(CCc1c(C)[nH]c2ccc(Cl)cc12)Cc1cccnc1`, inactive: 14.7%.
With `COCCNC(=O)C1(C)CCCN(C(=O)c2cccc(Cl)c2)C1` (stereo not given) the figure was inactive: -17.7%; with `COc1ccccc1CCC(=O)NNC(=O)c1cccs1`, inactive: 10.7%; with `Cc1ccc(NC(=O)[C@@H]2CCCN2S(=O)(=O)c2ccccc2F)cc1`, inactive: 28%.
Take `COc1ccc(-n2ncc(C(C)NS(=O)(=O)c3ccc(C(C)=O)cc3)c2C)cc1` (stereo not given): the “growth rescue (activation)” value was inactive: 18.7%.
For `O=C(CCNC(=O)c1ccco1)Nc1ccc(OC(F)F)c(Cl)c1` the value was inactive: -18.5%; for `COc1cc(/C=C2\SC(=S)N(NS(=O)(=O)c3ccccc3)C2=O)cc(OC)c1OC`, inactive: 16.6%; for `CC(C)c1ccc(NC(=O)C[n+]2ccn(C3=C([O-])c4ccccc4C3=O)c2)cc1`, inactive: 7.25%.
On to `COCCc1nc2ccc(C(=O)N(C)Cc3cccc(-n4nc(C)cc4C)c3)cc2o1`, for which the “growth rescue (activation)” value is inactive: 19.6%.
For the molecule `CCOC(=O)C(CC)n1cnc2sc3c(c2c1=O)CCC3` (stereo not given), the “growth rescue (activation)” value is inactive: 5.71%.
With `CCc1ccc(S(=O)(=O)NC2CC(C)(C)NC(C)(C)C2)cc1` the figure was inactive: -3.19%; with `O=S(=O)(NCCc1ccccc1)c1cccs1`, inactive: 2.59%; with `CCOc1ccc(-c2cc(C(=O)Nc3ccc(F)cc3)[nH]n2)c(C)c1`, inactive: 12.4%.
For `O=C(O)CCSc1nnc(COc2cccc3ccccc23)n1-c1cccc(Cl)c1` the value was inactive: 23%.
With `O=C(CNC(=O)c1ccc(Cl)cc1)N/N=C/C=C/c1ccccc1` the figure was inactive: 11%; with `CC(C)(C)NC(=O)CN(C(=O)c1ccc(Cl)nc1)c1cccc2ccccc12`, inactive: 4.47%.
Turning to `Cc1ccccc1-n1c(C)cc(/C=N/Nc2ccc([N+](=O)[O-])cn2)c1C`, the “growth rescue (activation)” value was inactive: -1.06%.
With `C=CCn1c(SCC(=O)N2CCOCC2)nc2sc(C)c(C)c2c1=O` the figure was inactive: 16.4%.
With `Cc1ccc(CNC(=O)c2ccc3c(c2)N(Cc2ccccc2)C(=O)c2ccccc2S3(=O)=O)cc1` the figure was inactive: 34.3%; with `CN1CC(=O)N(CC(=O)NC2CCCCC2)C1=O`, inactive: 16.6%; with `CCOc1ccccc1N(CC(=O)N1CCC(C)CC1)S(=O)(=O)c1ccc(C)cc1`, inactive: 8.01%.
For the molecule `O=C(Cn1c(=O)oc2ccccc21)Nc1nc(-c2ccc(Br)cc2)cs1`, the “growth rescue (activation)” value is inactive: -25.5%.
With `CCCCCCCN1C2=NCCCN2c2ccccc21` the figure was inactive: 4.92%; with `CC(=O)Nc1cc(O)cc(O)c1`, inactive: 10.5%.
Regarding `CCOc1cc(CNC(C)(C)C)ccc1OCC(=O)Nc1cccc(C(F)(F)F)c1`, the “growth rescue (activation)” value was inactive: -12.4%.
On to `COc1ccc2c(Sc3ccccc3)c(C(=O)NCCCN3CCCCC3)[nH]c2c1`, for which the “growth rescue (activation)” value is inactive: 15.7%.
For `CC(=O)c1ccc(S(=O)(=O)N2CCNC(=O)C2)cc1` the value was inactive: 16.5%; for `Cc1cccc(C(=O)Nc2ccccc2NC(=O)c2cccc(C)c2)c1`, inactive: 3.96%.
For `COCCNC(=O)C1CCCN(Cc2ccccc2)CC1` (stereo not given) the value was inactive: 5.59%; for `Cc1cccc(C(=O)NC2CC(C)(C)NC(C)(C)C2)c1`, inactive: 8.39%.
For `Cc1ccsc1/C=N/Nc1nc(=O)[nH]nc1C` the value was inactive: -44.4%; for `CC(=O)c1cccc(NC(=O)COC(=O)[C@@H](NC(=O)OCc2ccccc2)C(C)C)c1`, inactive: 26.7%.
As for `CC(=O)OC[C@@H]1CN(Cc2cccc(C(F)(F)F)c2)C[C@H](n2cnc3c(N4CCOCC4)ncnc32)O1`, the “growth rescue (activation)” value was inactive: 21.4%.
Take `O=C(NCC1CCCN(C(=O)NCc2ccccc2)C1)c1ccc2c(c1)OCO2` (stereo not given): the “growth rescue (activation)” value was inactive: 8.89%.
